Reference: PMC4336329 (PLoS ONE, 2015)
Screen size: about 310,000 compounds; about 2,200 (0.71%) showed an effect of 50% or more. Effects have a minus sign here. The list shows a part of the results.

target: human ether-à-go-go-related gene (hERG) potassium channel (human, UniProt Q12809); experiment: primary screen, population patch clamp on CHO cells stably expressing hERG
Sequence (Q12809 whole entry, looked up): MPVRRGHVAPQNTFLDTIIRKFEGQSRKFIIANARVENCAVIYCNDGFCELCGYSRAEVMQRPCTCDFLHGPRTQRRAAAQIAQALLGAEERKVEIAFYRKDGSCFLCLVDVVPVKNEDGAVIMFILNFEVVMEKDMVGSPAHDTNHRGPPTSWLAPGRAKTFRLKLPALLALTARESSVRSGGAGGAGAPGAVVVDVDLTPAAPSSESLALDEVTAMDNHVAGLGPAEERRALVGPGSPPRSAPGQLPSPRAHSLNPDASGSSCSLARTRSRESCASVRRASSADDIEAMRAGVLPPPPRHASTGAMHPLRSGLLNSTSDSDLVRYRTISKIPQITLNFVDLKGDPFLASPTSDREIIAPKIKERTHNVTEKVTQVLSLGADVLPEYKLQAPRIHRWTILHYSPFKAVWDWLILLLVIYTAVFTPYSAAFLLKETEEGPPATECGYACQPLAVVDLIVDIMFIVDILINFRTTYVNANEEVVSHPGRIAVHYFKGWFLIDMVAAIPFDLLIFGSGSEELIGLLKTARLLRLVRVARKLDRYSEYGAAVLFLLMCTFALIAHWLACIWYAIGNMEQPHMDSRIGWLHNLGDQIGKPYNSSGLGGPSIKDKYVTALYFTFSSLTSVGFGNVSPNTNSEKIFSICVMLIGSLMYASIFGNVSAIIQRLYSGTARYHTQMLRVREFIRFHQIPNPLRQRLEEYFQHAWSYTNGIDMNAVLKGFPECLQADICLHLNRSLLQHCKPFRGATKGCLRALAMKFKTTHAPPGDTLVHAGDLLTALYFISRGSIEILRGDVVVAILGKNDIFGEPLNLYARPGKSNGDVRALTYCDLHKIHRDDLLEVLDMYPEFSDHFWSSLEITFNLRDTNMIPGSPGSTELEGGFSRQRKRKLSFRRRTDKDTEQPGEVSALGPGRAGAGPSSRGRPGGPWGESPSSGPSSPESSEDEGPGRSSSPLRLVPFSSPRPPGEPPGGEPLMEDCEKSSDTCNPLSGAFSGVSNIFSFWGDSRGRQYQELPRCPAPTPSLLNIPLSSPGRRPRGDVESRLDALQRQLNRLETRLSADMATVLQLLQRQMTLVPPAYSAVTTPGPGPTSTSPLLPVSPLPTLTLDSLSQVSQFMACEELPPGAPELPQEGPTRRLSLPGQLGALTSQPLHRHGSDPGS

| Structure (SMILES) | hERG current change (%, negative = inhibition) at 1uM [%] |
| --- | --- |
| O=C(Cc1nc2ccccc2[nH]1)c1ccc(Cl)cc1 | 11.4 |
| CCCNc1cc(C)oc(=O)c1C(=O)CC | 18.4 |
| O=C(Nc1ccccc1C(=O)OCc1nnc(-c2ccccc2)o1)c1ccco1 | 0.391 |
| Cc1ccc(CN(C(=O)c2ccco2)C2CCS(=O)(=O)C2)cc1 (stereo not shown) | 4.51 |
| Cc1c(C)c2ccc(OCC(=O)Nc3ccc(N4CCC(C)CC4)cc3)cc2oc1=O | 14 |
| CCOc1ccc(NC(c2ccccn2)c2oc(CO)cc(=O)c2O)cc1 (stereo not shown) | 11.1 |
| COc1ccc(C)cc1S(=O)(=O)NC(C)C(=O)Nc1ccc2c(c1)OCO2 (stereo not shown) | 9.62 |
| COc1ccc(-c2cc(CNS(=O)(=O)c3cc(OC)ccc3OC)on2)cc1 | 8.68 |
| O=S(=O)(c1ccc(Br)s1)N1CCCCC1 | 10.4 |
| CCOc1ccc(N(CC(=O)NCCCOC)S(C)(=O)=O)cc1 | 2.69 |
| C=C(C)Cn1c(=O)c2c(nc3n2CCCN3CCc2ccccc2)n(C)c1=O | -41.5 |
| Cc1ccc(-n2c(CNc3ccc(F)cc3)nnc2SCC(N)=O)cc1 | 2.57 |
| O=C(Nc1ccccc1)Nc1cccc2ccccc12 | 8.06 |
| COc1cc(C2C(C(C)=O)=C(O)C(=O)N2c2ccc(C)cc2)ccc1O (stereo not shown) | 17.1 |
| CC1CC(C)CN(S(=O)(=O)c2cccc3nonc23)C1 (stereo not shown) | 9.47 |
| COc1ccc(N2CCN(C(=S)Nc3ccc(F)cc3)CC2)cc1 | 18.4 |
| CC1CCC(=O)N(CCOc2ccccc2)CC1 (stereo not shown) | -1.81 |
| CCOC(=O)c1nnn(-c2nonc2N)c1CN(C)Cc1ccccc1 | 9.78 |
| CCOc1ccc2oc(C(=O)N3CCN(c4ccccn4)CC3)c(C)c2c1 | 15.3 |
| O=C(NC1CCCC1)c1ccc(Cl)c(S(=O)(=O)N2CCOCC2)c1 | 1.58 |

| Structure (SMILES) | hERG current change (%, negative = inhibition) at 1uM [%] |
| --- | --- |
| CCCCn1c(SCc2cccnc2)nc2c1c(=O)n(C)c(=O)n2C | -2 |
| COc1ccc(C(C)(C)C)cc1NC(=O)COC(=O)C1=NNC(=O)CC1 | 3.3 |
| O=C(CSc1nnnn1-c1ccc(F)cc1)Nc1ccccc1F | 11 |
| C/C(=N\N=C1\NC(=O)C(CC(=O)Nc2ccccc2F)S1)C1CCCCC1 (stereo not shown) | -0.148 |
| CC(C)NC(=O)NC(=O)CSc1nncn1C | 1.66 |
| Nn1c(SCC(=O)NC(=O)Nc2ccc3c(c2)OCCO3)nnc1C1CC1 | 13.8 |
| O=C(Nc1ccc2oc(-c3ccncc3)nc2c1)c1ccc(F)cc1 | -1.1 |
| Cc1ccc(O)c(-c2cc(C(=O)Nc3ccc(S(=O)(=O)Nc4nccc(C)n4)cc3)[nH]n2)c1 | 6.89 |
| CCC(C)NS(=O)(=O)c1ccc(OCC(=O)N2CCCCC2)cc1 (stereo not shown) | 7.55 |
| CN1CCN(c2ccc(F)cc2N)CC1 | 17 |
| C=CCn1c(SCc2ccc(C(=O)Nc3ccccc3)cc2)nnc1-c1ccccc1 | -2.11 |
| CCCN1C(=O)c2ccccc2NC1c1ccc(Cl)c(Cl)c1 (stereo not shown) | 10.7 |
| CC(NC(=O)Nc1cccnc1)(C(F)(F)F)C(F)(F)F | 1.35 |
| CC(=O)Nc1ccc(S(=O)(=O)N2CCN(CCC#N)CC2)cc1 | 12.7 |
| CCn1cc(/C=C(\NC(=O)c2ccc(OC)c(OC)c2)C(=O)N2CCN(C)CC2)c2ccccc21 | 3.89 |
| COc1ccc(CCNC(=O)Cn2nnc(C(=O)Nc3cccc(C)c3C)c2N)cc1OC | 12.2 |
| Clc1cccc(CNCCNCc2cccc(Cl)c2)c1 | -5.35 |
| Nc1nccnc1C(=O)OCC(=O)Nc1cccc(S(=O)(=O)N2CCCCC2)c1 | 0.171 |
| O=C(c1ccc([N+](=O)[O-])cc1)N1CCN(c2cccc3[nH]ccc23)CC1 | -29.9 |
| O=C(c1ccco1)N1CCN=C1SCc1c(F)cccc1Cl | 6.94 |

| Structure (SMILES) | hERG current change (%, negative = inhibition) at 1uM [%] |
| --- | --- |
| Fc1cccc(NC(=S)NCc2cccnc2)c1 | 21.2 |
| COc1ccccc1C(=O)Nc1c(C(=O)N2CCN(C)CC2)oc2ccccc12 | 9.81 |
| COc1ccccc1CN1CCNC(=O)C1CC(=O)N(C)CC1CCOCC1 (stereo not shown) | 16.6 |
| CN(C)c1ccc(Sc2nnc(NC(=O)Nc3ccc(Cl)cc3Cl)s2)cc1 | 13.7 |
| C/C(=N\N=C\c1ccc(N(C)C)cc1)c1cccc([N+](=O)[O-])c1 | 10.7 |
| COc1ccccc1-n1c(CNCC2CCCO2)nc2ccccc2c1=O (stereo not shown) | 1.27 |
| COc1ccccc1N(C)S(=O)(=O)c1ccc(C(=O)N(C)Cc2ccc(Cl)s2)cc1 | 6.69 |
| COc1ccc(Cl)cc1NS(=O)(=O)c1ccc(S(=O)(=O)N2CCCC2)cc1 | -7.39 |
| C[C@@H](O)c1nc2ccccc2n1N | 13.2 |
| CCCC(=O)Nc1cc(C)cn(Cc2c(F)cccc2Cl)c1=O | 8.22 |
| CCCCc1cc(=O)oc2cc(C)cc(OCC(=O)N3CCC(C(=O)O)CC3)c12 | 10.9 |
| O=[N+]([O-])c1cc(C(F)(F)F)cc([N+](=O)[O-])c1NCCN1CCNCC1 | 8.98 |
| Cc1csc(NC(=O)C2=COCCO2)n1 | 9.22 |
| CC(=O)c1nc(-c2ccccc2)sc1C | 13.1 |
| Cc1c(C(=O)Cc2ccccc2)n(C)c2ccccc12 | 13.1 |
| O=C(Nc1ccc(Cl)cc1F)C1CC1c1ccccc1 (stereo not shown) | 15.7 |
| CC(=O)Nc1ccc(NS(=O)(=O)c2cc([N+](=O)[O-])ccc2C)cc1 | 7.46 |
| O=C(Nc1ccc(-c2nnco2)cc1)c1ccccc1 | 14.8 |
